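Grown in 96-well plates, cells were treated for 48 hours with each compound at five concentrations. Insufficient inhibition: endpoint recorded as highest concentration tested. At the GI50, growth is halved. TGI is the concentration that stops growth completely.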

Among the data in PubChem BioAssay (NCI) are TGI and GI50 values, retold here.

The experiment deals with NCI-H322M lung. As to the kind of experiment: NCI-60 cell line screen, 48 h.
Molecule `Cc1c(C(=O)N2CCN(c3ccc([N+](=O)[O-])cc3)CC2)[n+](=O)c2cc(Cl)c(Cl)cc2n1[O-]` showed a TGI of 97.5 µM.

`O=C(CC/C=C(/CS(=O)(=O)c1ccccc1)S(=O)(=O)c1ccccc1)c1ccccc1` gave a TGI greater than 100 µM.

For the molecule `OCC1OC(n2ccc3c(NO)ncnc32)C(O)C1O` (stereo not given), the GI50 is 0.0996 µM and the TGI was determined as 0.846 µM.

For `N=C(N=C(N)N)N1CCN(c2ccncc2)CC1`, the GI50 is greater than 1000 µM and the TGI is greater than 1000 µM.

`CCOc1cc(NC(C)=O)ccc1C(=O)NN1C(=O)C(Oc2ccccc2)C1c1ccccc1` (stereo not given): the TGI was greater than 100 µM.

On to `COc1cccc(-c2ccc3c4c2O[C@H]2c5[nH]c6ccccc6c5C[C@@]5(O)[C@@H](C3)N(CC3CC3)CC[C@]425)c1`, for which the TGI worked out at 5.34 µM.

Consider `COC(=O)c1c2c(c(C)[n+]([O-])c1C)C(=O)C=C(NCc1ccc(F)c(F)c1)C2=O`, for which the GI50 was 0.704 µM and the TGI was 2.09 µM.

With `O=C1C(F)=CC(COC(c2ccccc2)(c2ccccc2)c2ccccc2)OC1n1cc(F)c(=O)[nH]c1=O` (stereo not given), the TGI is 20.6 µM.

The molecule `CC(C)c1ccc(/C(C(=O)O)=C(\O)C(=O)O)cc1` displayed a TGI greater than 100 µM.

Consider `O=C(O)CCCCCOc1cccnc1/C=N/NC1=NCCN1`, for which the TGI is greater than 100 µM.

`Cc1ccc(S(=O)(=O)/N=C(\NN)Nc2ccc(Cl)cc2)cc1` showed a TGI greater than 100 µM.

`NC(=O)N/N=C/C(/C=N/NC(N)=O)[N+](=O)[O-]` gave a TGI greater than 100 µM.

Turning to `CN(C)CCCN1c2nc3ccccc3cc2Sc2cc3ccccc3nc21`, the GI50 is 1.6 µM and the TGI turned out to be 3 µM.

Consider `COc1cc2c3c(n(CCCNCCN)c(=O)c2cc1OC)-c1cc2c(cc1C3=O)OCO2`, for which the GI50 is 0.844 µM and the TGI stood at 4.6 µM.

`O=c1[nH]nc(-c2ccccc2)n1/N=C/c1ccncc1` returned a TGI greater than 100 µM.

In turn, `OCCSCc1ccccc1` displayed a TGI greater than 100 µM.

`COCC(=O)CP(=O)(OC)OC` gave a TGI greater than 100 µM.

As to `CC12CCC(C(=O)O1)C(C)(C)O2` (stereo not given), the TGI was greater than 100 µM.

On to `CCOC(=O)c1c(Br)c(-c2ccc(Br)cc2)c(Br)n1C`, for which the TGI is greater than 100 µM.

For `CCOC(=O)Nc1c(C#N)[n+]([O-])c2cc(Cl)c(Cl)cc2[n+]1[O-]`, the TGI is 67.1 µM.

With `CCOc1ccc(/C=C(\Cl)c2ccc(OC)c(OC)c2)cc1`, the TGI was greater than 100 µM.

As for `NNc1cccc(/C=C/c2ccccc2)cc1=O`, the GI50 was 5.83 µM and the TGI came to 64.3 µM.

Turning to `COc1ccc(-c2cc(/C=C3\C(=O)Nc4ccc(Cl)cc43)[nH]n2)cc1`, the GI50 was 7.05 µM and the TGI is 22.5 µM.

`COc1ccc2cc1Oc1ccc(cc1)C(Sc1ccccc1)CCOC(=O)CC2` (stereo not given) had a TGI greater than 100 µM.

`CN(C)c1nc(NC23CC4CC(CC(C4)C2)C3)nc(N(C)C)n1` came in with a TGI greater than 20.7 µM.

Take `C#CC1(O)C(COP(=O)(O)OC2CC(n3cc(F)c(=O)[nH]c3=O)OC2CO)OC(n2ccc(N)nc2=O)C1O` (stereo not given): the GI50 was 0.0288 µM and the TGI is greater than 33.9 µM.

In the case of `CN(C)C(N)=NC#N`, the TGI was greater than 100 µM.

`O=C1C(NCCc2ccc(O)c(O)c2)=CC(=O)c2ncccc21` showed a TGI of 38.6 µM.

`CCOC(=O)N1CCN(c2ccc3c(C)cc(C)nc3n2)CC1` came in with a TGI greater than 100 µM.

In turn, `O=C(O)/C(=C/c1c(O)ccc2ccccc12)c1csc(-c2nc(/C(=C\c3c(O)ccc4ccccc34)C(=O)O)cs2)n1` gave a TGI of 31 µM.

Regarding `CCN1C(=S)N(CC)C2C1NC(=S)N2/N=C/C=C/c1ccccc1` (stereo not given), the GI50 is 6.38 µM and the TGI came out at 37.8 µM.

Molecule `CCOC(=O)c1sc2nc(SC)nc3c2c1NC(=O)CN3c1cccc(F)c1` registered a TGI of 68.7 µM.

`O=C1NC(N/N=C\C(O)C(O)C(O)CO)=N/C1=C/c1ccc(Cl)cc1` (stereo not given) yielded a TGI greater than 100 µM.

With `CC(=O)OCCOCNC(=S)N/N=C(\C)c1cnc2ccccc2n1`, the TGI is greater than 100 µM.

Molecule `CCOC(=O)C(CO)c1nc2c([nH]c1=O)c(=O)n(C)c(=O)n2C` (stereo not given) came in with a TGI greater than 100 µM.

`Nc1ccc(S(=O)(=O)C23CC4CC(CC(C4)C2)C3)cc1`: the TGI was greater than 100 µM.

For `Clc1nc(Cl)c(Cl)c(Cl)n1`, the TGI is 31.6 µM.

In turn, `O=C(NCCC(F)(F)C(F)(F)C(F)(F)C(F)(F)F)NC1OC(CO)C(O)C(O)C1O` (stereo not given) returned a TGI greater than 100 µM.

Molecule `O=C(CN1CCN(Cc2ccccc2)CC1)N1CCCn2c1nc1ccccc1c2=O` had a TGI greater than 100 µM.

`NC(=Nc1ccc(O)cc1)S(=O)(=O)O` came in with a TGI greater than 100 µM.

Regarding `CC(=O)O[C@H]1CC[C@@]2(C)C(=CC[C@H]3[C@@H]4C/C(=C\c5cccc(OCCN6CCOCC6)c5)[C@H](OC(C)=O)[C@@]4(C)CC[C@@H]32)C1`, the GI50 was 14.2 µM and the TGI was determined as 30.7 µM.

Regarding `Nc1ccc2c(c1)NCCN2`, the TGI is greater than 100 µM.

`O=c1c(SSc2coc3cc(F)ccc3c2=O)coc2cc(F)ccc12`: the TGI was greater than 100 µM.

Molecule `C=CCOc1ccccc1N=N/C(C#N)=N\Nc1ccccc1OCC=C` had a TGI greater than 100 µM.

Take `COc1ccc2c(c1OC)C1=C(C2=O)c2cc3c(cc2CCN1)OCO3`: the TGI is greater than 100 µM.

For `CCCCCCCCCCN(CCCCCCCCCC)CC(=O)c1ccc2cc(Br)c3ccccc3c2c1`, the GI50 was 11.3 µM and the TGI is 24.1 µM.

The molecule `CCCCCCCCCCCCCCCCCCNc1ccn(C2OC(COP(=O)(O)OCC3CCC(n4cnc5c(=O)[nH]cnc54)O3)C(O)C2O)c(=O)n1` (stereo not given) displayed a TGI greater than 100 µM.

On to `COC(=O)c1ccccc1C#CC#Cc1ccccc1C(=O)OC`, for which the TGI was greater than 10 µM.

Turning to `COCCOC(=O)NC(=O)Nc1ccc(/C(=N/O)c2ccc(Cl)cc2)cc1`, the GI50 was 0.312 µM and the TGI was determined as 59.3 µM.

Turning to `O=C(c1ccc2ncc(-c3nc(NC4CC4)ncc3F)n2c1)N1CCOCC1`, the GI50 is 2.47 µM and the TGI stood at 9.61 µM.

As for `O=c1nc(Nc2cccc(Cl)c2)oc2cc(Cl)oc(=O)c12`, the GI50 was 18 µM and the TGI was 43 µM.
